Laboratory results as given in PubChem BioAssay AID1508642 (National Center for Advancing Translational Sciences (NCATS), 2021).
Out of some 43,000 compounds screened, about 200 (0.47%) were called active. About 12% were inconclusive and are not listed. Calls follow the shape of the dose curve; as a rule, active = well fitted cell-killing curve with a large enough effect; inconclusive = small, poorly fitted or top-dose-only effect, or effect the other way; inactive = flat fitted curve, though single readings scatter. This is one part of the list.

experiment: Cell viability qHTS assay in S16 Pmp22-F2sN cells; conditions: S16 Pmp22-F2sN Schwann cells viability, CellTiter-Glo, 24 h; series mostly up to 57.5 µM; activity change, negative = cytotoxicity: at the top concentration; also: nearly all actives have a fitted effect of over 65% in size
Procedure, shortened: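 Used to flag compounds lowering reporter output through toxicity, this quantitative HTS measures ATP-based CellTiter-Glo luminescence in S16 Pmp22-F2sN Schwann cells after 24 h compound exposure at 37C.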
% is scaled to controls: 0 for no effect and ±100 for the full control effect.

SMILES | activity change, negative = cytotoxicity
CCOC(=O)C1CCC(CN(Cc2c(Cl)cccc2Cl)S(=O)(=O)c2ccc(F)c(C)c2)CC1 (configuration not stated) | inactive: -3.85%
COc1cccc(NC(=O)CCNS(=O)(=O)c2ccc3c(c2)CCCC(=O)N3)c1 | inactive: 4.29%
CCOCCCNC(=O)N1CCN(S(=O)(=O)c2ccc3c(ccn3C)c2)CC1 | inactive: -6.53%
COc1ccc(-c2noc(-c3ccc(N4CCOCC4)c([N+](=O)[O-])c3)n2)cc1OC | inactive: -0.288%
COc1ccccc1N1CCN(CCC(=O)Nc2cccc(F)c2)CC1 | inactive: -18.1%
O=C(Cn1c(=O)n(-c2ccccc2)c(=O)c2ccc(C(=O)NCc3ccc4c(c3)OCO4)cc21)Nc1ccc(Br)cc1F | inactive: 8.16%
CCOc1ccc(CNC(=O)c2cnc(SC)nc2CC)cc1 | inactive: -1.47%
COc1ccc(CNc2nc(-c3ccc(OC)c(OC)c3)cc(C(F)(F)F)n2)cc1 | inactive: 16.5%
CCCCSCCCNC(=O)CN1C(=O)COc2ccc(S(=O)(=O)N3CCCC3)cc21 | inactive: 0.184%
Cn1c(=O)c2c(SCC(=O)NCC3CCCO3)nc(-c3ccccc3F)nc2n(C)c1=O (configuration not stated) | inactive: 2.4%
CCOC(=O)c1ccc(NS(=O)(=O)c2cc3c(cc2C)n(C)c(=O)c(=O)n3C)cc1 | inactive: 0.135%
CC(C)NC(=O)c1cnc2sc(N3CCCCCC3)nn2c1=O | inactive: 26.5%
COc1ccc(CN(C(=O)Nc2ccccc2)c2ccccn2)cc1OC | inactive: 2.98%
O=S(=O)(Nc1c(F)cccc1F)c1ccc2c(c1)OCCO2 | inactive: 7.17%
Cc1ccc2oc(C(=O)Nc3c(C(=O)c4ccc(C)c(F)c4)oc4ccccc34)cc(=O)c2c1 | inactive: 2.34%
COc1ccc(C)cc1NC(=O)C(CCSC)NS(=O)(=O)c1ccc2c(c1)oc(=O)n2C (configuration not stated) | inactive: -8.5%
CCn1nnc2cc(C(=O)Nc3cccc(C(F)(F)F)c3)ccc21 | inactive: -12%
CCOC(=O)N1CCc2c(sc3c2c(=O)n(Cc2ccccc2)c(=O)n3CC(=O)Nc2ccccc2F)C1 | inactive: 2.41%
COc1cccc(NC(=O)c2sc3nc(C)c(C(=O)Nc4ccc(C)cc4C)c(-c4ccc(Br)cc4)c3c2N)c1 | inactive: -22.1%
Cc1cc(Cl)ccc1NC(=O)C1CCN(S(=O)(=O)c2ccc3[nH]c(=O)ccc3c2)CC1 | inactive: -3.36%
Cc1ccc2nc(SC(Cc3cc(Cl)ccc3Cl)C(=O)O)[nH]c2c1 (configuration not stated) | inactive: 0.865%

SMILES | activity change, negative = cytotoxicity
COc1ccc(CNC(=O)c2cc3sccc3n2C)cc1 | inactive: -1.38%
NC(=O)C1(N2CCCCC2)CCN(C(=O)Nc2ccc(Cl)c(Cl)c2)CC1 | inactive: -11.9%
CCOC(=O)c1cc(-c2ccccc2)nn1Cc1ccccc1 | inactive: -1.82%
O=C(CCOc1ccccc1)N(Cc1cccnc1)c1nc2c(Cl)cccc2s1 | inactive: -12.2%
Cc1ccc(C2c3[nH]c4ccccc4c3CCN2C(=O)c2ccc(N(C)C)cc2)cc1 (configuration not stated) | inactive: -3.2%
Cc1cccc(Cn2c(=O)n(CCc3ccccc3)c(=O)c3sc4ccccc4c32)c1 | inactive: 11.9%
Cc1ccc(CCNC(=O)CCSCc2ccccc2F)cc1 | inactive: 14.8%
CCc1cccc(CC)c1NC(=O)Cc1csc(C)n1 | inactive: 1.58%
Cc1cc(Nc2cccc(F)c2)n2nc(-c3ccco3)nc2n1 | inactive: 6.93%
Cc1cccc(CN2C(=O)c3ccccc3Sc3ccc(C(=O)NCCc4ccccc4)cc32)c1 | inactive: 1.17%
CCC(=O)N1CCc2cc(CNS(=O)(=O)c3ccc(Cl)s3)ccc21 | inactive: -19.4%
O=C(Cn1nc(C(F)(F)F)c2c1CCCC2)Nc1ccc(F)c(Cl)c1 | inactive: -11.5%
COc1ccc(-c2ccc(=O)n(CC(=O)Nc3ccc(N(C)C)cc3)n2)cc1 | inactive: 2.07%
Cc1c(C(=O)NCc2ccc(F)cc2)sc2nc3n(c(=O)c12)CCC3 | inactive: 14.1%
CCOc1ccc(NC(=O)c2cc(CN3CCCC3)on2)cc1 | inactive: 0.228%
COc1ccc(OC)c(NC(=O)Cn2cc(C(=O)c3cccs3)c3ccccc32)c1 | inactive: -34.9%
CSc1ccc(C2c3c(oc4ccc(F)cc4c3=O)C(=O)N2c2ccc(C)cn2)cc1 (configuration not stated) | inactive: -0.199%
Cc1c(NC(=O)c2cc3ccccc3o2)cccc1-c1nc2ccccc2o1 | inactive: -2.41%
Cc1ccc2nc(Nc3ccc(Br)cc3)nc(-c3ccccc3)c2c1 | inactive: -16.1%
Cc1cccc(N(C)C(=O)C2CCN(S(=O)(=O)c3cccc4nonc34)CC2)c1 | inactive: -0.0268%
CCOc1ccc2oc(=O)cc(CN3CCN(C(=O)c4ccc(Cl)cc4)CC3)c2c1 | inactive: -11.4%

SMILES | activity change, negative = cytotoxicity
COc1ccc(-c2nc3ccc(C(=O)NCc4ccccc4)cc3nc2-c2ccc(OC)cc2)cc1 | inactive: 2.99%
Cc1ccccc1NC(=O)c1ccccc1NC(=O)c1ccccc1F | inactive: 2.92%
CCCSc1nnc2c(n1)OC(CC)N(C(C)=O)c1ccccc1-2 (configuration not stated) | inactive: -0.119%
O=C(CN1C(=O)COc2ccc(S(=O)(=O)N3CCCCC3)cc21)NCCc1ccc(Cl)cc1 | inactive: 9.38%
O=C(Nc1nnc(S(=O)(=O)N2CCCC2)s1)c1ccccc1Cl | inactive: -5.5%
CCn1ccc2cc(S(=O)(=O)N3CCC(C(=O)NCc4ccc(OC(C)C)cc4)CC3)ccc21 | inactive: 7.69%
COc1ccc(N2CCN(S(=O)(=O)c3c(C)nc4sc(C)cn4c3=O)CC2)cc1 | inactive: 8.52%
COc1ccc(Cc2nc3c4cnn(-c5ccccc5Br)c4ncn3n2)cc1 | inactive: -4.98%
CC1=C(c2ccc(C)c(C)c2)S(=O)(=O)N(Cc2ccc(C(=O)NCc3ccc(C)cc3)cc2)C1=O | inactive: 6.32%
COC(=O)COc1ccc(Oc2nc(NC(C)(C)C)nc(N3CCOCC3)n2)nn1 | inactive: 18.8%
CCOc1ccccc1CNC(=O)Cn1nc(C)c2nn(-c3ccc(Cl)cc3)c(C)c2c1=O | inactive: -4.46%
O=C(CSc1nc(-c2ccccc2)cc(=O)[nH]1)Nc1ccccc1F | inactive: -1.22%
COc1ccc(-c2cnc(NCc3ccc(C)cc3)n2C)cc1 | inactive: -15.9%
CC1=C(C(=O)Nc2ccc(C)c(C)c2)C2(CCCCCC2)OC1=O | inactive: -4.31%
COc1cc(C2NC(=O)N(C)C3=C2C(=O)N(c2ccccc2)C3)ccc1O (configuration not stated) | inactive: 5.72%
CCC(C)NC(=O)c1sc2nc(C)c(C(=O)Nc3ccc(C)cc3C)c(-c3ccc(Br)cc3)c2c1N (configuration not stated) | inactive: -1.37%
Cc1ccc2[nH]c(=O)c3cc(C(=O)N4CCN(c5ccccc5F)CC4)sc3c2c1 | inactive: 23%
CCN(CC)c1nc2c(S(=O)(=O)c3ccc(C)cc3)nnn2c2ccsc12 | inactive: 0.504%
COc1ccccc1NC(=O)CSc1oc(-c2cccs2)nc1S(=O)(=O)c1ccc(C)cc1 | inactive: 5.19%
O=C(NCc1ccccc1)c1cccc(NC(=O)N2CCSc3ncccc32)c1 | inactive: -1.4%
